Among the data in PMC9574860, “Chemical Toolkit for PARK7: Potent, Selective, and High-Throughput” (Journal of Medicinal Chemistry, 2022) are Inhibition % values, retold here.

Among all 7,900 compounds or so, about 400 (5.1%) showed an effect of 50% or more. This is one part of the list.

Sequence of Parkinson's disease protein 7 (PARK7/DJ1) (Q99497 whole entry, looked up, the tested form may be a part): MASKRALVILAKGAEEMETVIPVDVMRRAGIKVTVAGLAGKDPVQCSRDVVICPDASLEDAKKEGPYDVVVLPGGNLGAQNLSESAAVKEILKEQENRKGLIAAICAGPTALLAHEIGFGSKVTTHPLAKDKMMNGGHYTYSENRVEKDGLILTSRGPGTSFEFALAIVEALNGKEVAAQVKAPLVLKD

The experiment addresses Parkinson's disease protein 7 (PARK7/DJ1) (human, UniProt Q99497). The experiment in a line: primary screen, percent inhibition; read as competition with a fluorescent probe by fluorescence polarization; higher = more effect of the substance. Particulars: 100 µM. The method in brief:
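Fluorescence-polarization probe displacement (JYQ-107, 20 nM final, 2 h) after 2 h preincubation of PARK7 (0.2 μM final) with each fragment at 100 μM final. Read-out ex/em 480/520 nm; remaining activity derived from FP signal loss relative to reference controls.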
For `CNC(=O)CNS(=O)(=O)C=Cc1ccc(Cl)cc1`, the Inhibition % came to 0.98%.
The same measure for `O=C(CCl)c1cc(F)ccc1O`: 38.8%.
For `O=S(=O)(F)c1ccccc1O`, the Inhibition % amounted to 9.92%.
Turning to `CN(C)C(=O)Oc1cccc2cccnc12`, the Inhibition % was 4.58%.
As for `Sc1ccc(-c2ccco2)nn1`, the Inhibition % was 57.3%.
For `CC1(C)OB(c2ccccc2N2CCOCC2)OC1(C)C`, the Inhibition % is recorded as 4.39%.
In the case of `O=C1OCCC1N1CCN(c2nccs2)CC1` (stereo not shown), the Inhibition % is listed as 2.57%.
The same measure for `Cc1cc(C)nc(-n2nc(C)cc2NC(=O)CCl)n1`: 8.57%; for `Cc1ccsc1C=C(C#N)C(=O)NCCN1CCOCC1`: 13.2%; for `C=CC(=O)NCC1CCOC2(CCC2)C1` (stereo not shown): 7.99%.
With `CC(=O)Nc1ccc(C=C(C#N)c2ccccn2)cc1.Cl`, the Inhibition % amounted to 19.4%.
Regarding `COCCN(C)c1ccnc(C#N)c1`, the Inhibition % was determined as 1.89%.
The same measure for `CC1Cc2ccccc2N1C(=O)CCN1CCSC1=O` (stereo not shown): 4.3%.
For the compound `CN1CC(Nc2ccc(C#N)nc2)CCC1=O` (stereo not shown), the Inhibition % was 20.9%.
As for `C=CC(=O)NC(Cc1ccccc1)c1ncco1` (stereo not shown), the Inhibition % was found to be 11.9%.
For the compound `N#Cc1coc(C(F)(F)F)n1`, the Inhibition % turned out to be 5.35%.
With `C=CC(=O)Nc1ccccc1N1CCNC(=O)C1`, the Inhibition % is 10.7%.
The value for `Cc1ccc(C=CC(=O)N2CCCCC2C(=O)O)o1` (stereo not shown) was 13.8%; that for `O=S(=O)(F)CCCS(=O)(=O)Nc1ccc(F)cn1` was 77.2%.
For `C=CC(=O)NCCC1CC1(F)F` (stereo not shown), the Inhibition % is 4.88%.
As for `C=CC(=O)NCc1cccnc1N1CCOCC1`, the Inhibition % is 4.99%.
The same measure for `CC(C)C(NC(=O)CCl)c1ccc(F)cc1` (stereo not shown): 6.09%; for `C=CC(=O)N1CCn2c(nnc2C(C)C)C1`: 13.2%.
The value for `O=C(C=Cc1cccnc1)N1CCOc2ccccc21` was 4.17%.
Regarding `CCOc1ccc(S(=O)(=O)n2ccnc2C)cc1`, the Inhibition % was found to be 0.397%.
For `OB(O)C1CCN(Cc2cc3c(cn2)OCO3)C1` (stereo not shown), the Inhibition % is reported as 8.89%.
On to `COc1cccc(OS(=O)(=O)c2ccc(Cl)nc2)c1`, for which the Inhibition % is 3.42%.
Regarding `O=C(O)C1CCN(C(=O)C=Cc2cccnc2)CC1`, the Inhibition % turned out to be 2.49%.
For the compound `N#CC(=Cc1ccc(CSC(F)F)o1)C(N)=O`, the Inhibition % was 16.4%.
Consider `COC(=O)CC1(CS(=O)(=O)F)CC1`, for which the Inhibition % was 8.14%.
Regarding `O=C(CCl)N1CCc2sccc2C1c1cccs1` (stereo not shown), the Inhibition % was determined as 9.95%.
For the compound `CC1(C)OB(c2ccccc2C(F)F)OC1(C)C`, the Inhibition % was determined as 10%.
For `c1ccc2c(OCC3CO3)cccc2c1` (stereo not shown), the Inhibition % is on record as -2.98%.
The same measure for `O=C1NC2(CCCCCCC2)C(=O)N1CCS(=O)(=O)F`: 33.3%; for `CC(C)NC(=O)C(C#N)=Cc1ccc(O)nc1`: 11.6%; for `O=C(CCl)Nc1cc(F)ccc1F`: 18.1%.
For `CC(NC(=O)Cn1cnc(C#N)n1)c1ccc(F)cc1F` (stereo not shown), the Inhibition % was found to be 1.26%.
Take `O=C(c1cccnc1S)N1CCCC2(C1)OCCO2`: the Inhibition % is 0.421%.
The same measure for `C=CC(=O)N1CCC(n2ncc3ccccc32)C1` (stereo not shown): 5.41%; for `Cc1cc(C(=O)CCl)c(C)n1Cc1ccco1`: 54.9%; for `CC1(C)OB(c2c(F)cc(OCc3ccccc3)cc2F)OC1(C)C`: 2.29%.
The value for `Cc1cc(OCc2cccc(Cl)c2)ccc1B(O)O` was 1.29%.
`O=C(Cc1ccc(S(=O)(=O)F)cc1)NC1CCCC1`: the Inhibition % was determined as 2.81%.
The value for `CNC(=O)Nc1ccc(B2OC(C)(C)C(C)(C)O2)cc1` was 1.79%; that for `CCCCc1nnc(NC(=O)CCl)s1` was 5.92%; that for `COc1cccc2sc(NC(=O)CCl)nc12.Cl` was 17.5%.
On to `CC1(C)OB(c2ccc(OC3CC3)cc2)OC1(C)C`, for which the Inhibition % is 4.09%.
In the case of `Cc1cc(C(=O)CCl)ccc1F`, the Inhibition % is recorded as 24.6%.
Turning to `Cc1csc(C(C#N)=Cc2ccc3c(c2)OCCO3)n1`, the Inhibition % amounted to 6.03%.
The value for `CC1CCCN(Cc2ccc(CNC(=O)CCl)cc2)C1.Cl` (stereo not shown) was 13.2%; that for `C=CC(=O)NC1COc2cc(Cl)ccc2C1` (stereo not shown) was 6.51%.
On to `O=C(Nc1ccc(C2CC2)nn1)N[C@@H]1COC(=O)C1`, for which the Inhibition % was found to be 18.2%.
The same measure for `N#Cc1nc2ccccc2o1`: 4.9%.
For the compound `CCCn1c(N)c(C(=O)CCl)c(=O)[nH]c1=O`, the Inhibition % is 3.15%.
In the case of `C=CC(=O)Nc1cccc(C(F)(F)F)c1`, the Inhibition % was 9.31%.
In the case of `C=CC(=O)N1CCC(c2csc(C)c2)C1` (stereo not shown), the Inhibition % amounted to 8.44%.
On to `CN(Cc1ccc(F)cc1Cl)c1nccnc1C#N`, for which the Inhibition % is reported as 6.11%.
`O=C(CCl)Nc1ccc2c(c1)oc1ccccc12`: the Inhibition % is given as 62.9%.
For `CC(=O)c1ccc(NC(=O)CCl)cc1`, the Inhibition % came out at 45.4%.
As to `CCc1noc(CC)c1CNC(=O)c1cccnc1S`, the Inhibition % is recorded as 15.1%.
As to `O=C(CCCl)Nc1cccc(S(=O)(=O)N2CCCC2)c1`, the Inhibition % was found to be 4.27%.
As for `N#Cc1nccn1Cc1ccccc1C(F)(F)F`, the Inhibition % stood at 7.07%.
As to `CN(CC(C)(C)O)C(=O)c1ccc2c(=O)[nH]c(S)nc2c1`, the Inhibition % worked out at 13.3%.
On to `C=CC(=O)NCC(=O)Nc1ccccn1`, for which the Inhibition % was determined as 11%.
As for `O=C(O)C12CC3CC(CC(Cl)(C3)C1)C2`, the Inhibition % amounted to 8.12%.
The value for `O=C(CCl)N1CCC(Cc2ccccc2)CC1` was 31.1%; that for `CC1CCC2(CC1)NC(=O)N(CC=CCl)C2=O` (stereo not shown) was -0.501%; that for `O=C(C1CCOCC1)N1CCCCC1CCS(=O)(=O)F` (stereo not shown) was 82.4%.
In the case of `CCc1ccc(CNC(=O)CCl)s1`, the Inhibition % is 4.03%.
For `C=CC(=O)N1CC(C)C(N2CCOCC2)C1` (stereo not shown), the Inhibition % is 4.1%.
With `C=CC(=O)N1CCn2c(cc3ccccc32)C1`, the Inhibition % came out at 24.6%.
The value for `CC1CN(CC2OCCO2)CCC1c1ccccc1` (stereo not shown) was 8.86%; that for `CC(C)COc1ccc(B(O)O)cn1` was 9.39%; that for `Cl.ClCCn1cncn1` was -0.986%.
The value for `Cc1nn(C)c(NS(=O)(=O)C=Cc2ccccc2)c1C` was 11.2%.
With `N#CCSCC(=O)NC1CN(c2ccc(F)cc2)C1=O` (stereo not shown), the Inhibition % was found to be 5.09%.
The same measure for `Cc1ccc(CNC(=O)CCl)cc1F`: 3.35%.
Consider `O=S(=O)(F)c1ccc2cnccc2c1`, for which the Inhibition % was found to be 86.1%.
For the compound `CC1(C)OB(c2cnn3cccnc23)OC1(C)C`, the Inhibition % is recorded as 7.34%.
